Our source for the Ki values is patent US9873709B2 (priority 2013, dated 2018).

This test deals with isolated recombinant JAK1 kinase domain (Homo sapiens (Human), UniProt P23458). To be noted: read-out: JAK1 Ki; isolated recombinant JAK1 kinase domain, 25 μM ATP.
For the molecule `CCOC(=O)N1CC=C(c2cccn3nc(Nc4ccc(C(=O)N5CCC6(CCNCC6)C5)cc4)nc23)CC1` [Example 2-79, ethyl 4-[2-[4-(2,8-diazaspiro[4.5]decane-2-carbonyl)anilino]-[1,2,4]triazolo[1,5-a]pyridin-8-yl]-3,6-dihydro-2H-pyridine-1-carboxylate], the Ki – broadly, the equilibrium dissociation constant of an inhibitor or competing ligand from its target – was 2.8 nM.

Take `NCC1CCCN1C(=O)c1ccc(Nc2nc3c(C4=CCN(C(=O)CCC(F)(F)F)CC4)cccn3n2)cc1` (stereo not shown) [Example 2-80, 1-[4-[2-[4-[2-(aminomethyl)pyrrolidine-1-carbonyl]anilino]-[1,2,4]triazolo[1,5-a]pyridin-8-yl]-3,6-dihydro-2H-pyridin-1-yl]-4,4,4-trifluoro-butan-1-one]: the Ki turned out to be 0.67 nM.

Take `O=C(CCC(F)(F)F)N1CC=C(c2cccn3nc(Nc4ccc(C(=O)N5CC6(CCNCC6)C5)cc4)nc23)CC1` [Example 2-81, 1-[4-[2-[4-(2,7-diazaspiro[3.5]nonane-2-carbonyl)anilino]-[1,2,4]triazolo[1,5-a]pyridin-8-yl]-3,6-dihydro-2H-pyridin-1-yl]-4,4,4-trifluoro-butan-1-one]: the Ki was 1.57 nM.

`O=C(CCC(F)(F)F)N1CC=C(c2cccn3nc(Nc4ccc(C(=O)N5CCOC6(CCCNC6)C5)cc4)nc23)CC1` (stereo not shown) [Example 2-82, 4,4,4-trifluoro-1-[4-[2-[4-(1-oxa-4,8-diazaspiro[5.5]undecane-4-carbonyl)anilino]-[1,2,4]triazolo[1,5-a]pyridin-8-yl]-3,6-dihydro-2H-pyridin-1-yl]butan-1-one]: the Ki worked out at 1.41 nM.

With `O=C(NCC1CCC2(CCNCC2)O1)c1ccc(Nc2nc3c(C4=CCN(C(=O)CCC(F)(F)F)CC4)cccn3n2)cc1` (stereo not shown) [Example 2-83, N-(1-oxa-8-azaspiro[4.5]decan-2-ylmethyl)-4-[[8-[1-(4,4,4-trifluorobutanoyl)-3,6-dihydro-2H-pyridin-4-yl]-[1,2,4]triazolo[1,5-a]pyridin-2-yl]amino]benzamide], the Ki is 1.26 nM.

For `O=C(NCC1CCNCC1)c1ccc(Nc2nc3c(C4=CCN(C(=O)CCC(F)(F)F)CC4)cccn3n2)cc1` [Example 2-84, N-(4-piperidylmethyl)-4-[[8-[1-(4,4,4-trifluorobutanoyl)-3,6-dihydro-2H-pyridin-4-yl]-[1,2,4]triazolo[1,5-a]pyridin-2-yl]amino]benzamide], the Ki was 0.93 nM.

Regarding `CNC1CCN(C(=O)c2ccc(Nc3nc4c(C5=CCN(C(=O)CCC(F)(F)F)CC5)cccn4n3)cc2)C1` (stereo not shown) [Example 2-85, 4,4,4-trifluoro-1-[4-[2-[4-[3-(methylamino)pyrrolidine-1-carbonyl]anilino]-[1,2,4]triazolo[1,5-a]pyridin-8-yl]-3,6-dihydro-2H-pyridin-1-yl]butan-1-one], the inhibition constant Ki was 0.51 nM.

As to `O=C(NCCC1CCNCC1)c1ccc(Nc2nc3c(C4=CCN(C(=O)CCC(F)(F)F)CC4)cccn3n2)cc1` [Example 2-86, N-[2-(4-piperidyl)ethyl]-4-[[8-[1-(4,4,4-trifluorobutanoyl)-3,6-dihydro-2H-pyridin-4-yl]-[1,2,4]triazolo[1,5-a]pyridin-2-yl]amino]benzamide], the Ki was determined as 1.59 nM.

In the case of `CN1CC2CN(C(=O)c3ccc(Nc4nc5c(C6=CCN(C(=O)CCC(F)(F)F)CC6)cccn5n4)cc3)CC2C1` (stereo not shown) [Example 2-87, 4,4,4-trifluoro-1-[4-[2-[4-(2-methyl-1,3,3a,4,6,6a-hexahydropyrrolo[3,4-c]pyrrole-5-carbonyl)anilino]-[1,2,4]triazolo[1,5-a]pyridin-8-yl]-3,6-dihydro-2H-pyridin-1-yl]butan-1-one], the Ki was found to be 1.49 nM.

Consider `CN(C)CCC1CCCN(C(=O)c2ccc(Nc3nc4c(C5=CCN(C(=O)CCC(F)(F)F)CC5)cccn4n3)cc2)C1` (stereo not shown) [Example 2-88, 1-[4-[2-[4-[3-[2-(dimethylamino)ethyl]piperidine-1-carbonyl]anilino]-[1,2,4]triazolo[1,5-a]pyridin-8-yl]-3,6-dihydro-2H-pyridin-1-yl]-4,4,4-trifluoro-butan-1-one], for which the Ki came out at 2.25 nM.

On to `CN(C)CC1(O)CCCN(C(=O)c2ccc(Nc3nc4c(C5=CCN(C(=O)CCC(F)(F)F)CC5)cccn4n3)cc2)CC1` (stereo not shown) [Example 2-89, 1-[4-[2-[4-[4-[(dimethylamino)methyl]-4-hydroxy-azepane-1-carbonyl]anilino]-[1,2,4]triazolo[1,5-a]pyridin-8-yl]-3,6-dihydro-2H-pyridin-1-yl]-4,4,4-trifluoro-butan-1-one], for which the Ki is 2.18 nM.

Regarding `Cc1nc(C2CCCN(C(=O)c3ccc(Nc4nc5c(C6=CCN(C(=O)CCC(F)(F)F)CC6)cccn5n4)cc3)C2)cc(N(C)C)n1` (stereo not shown) [Example 2-90, 1-[4-[2-[4-[3-[6-(dimethylamino)-2-methyl-pyrimidin-4-yl]piperidine-1-carbonyl]anilino]-[1,2,4]triazolo[1,5-a]pyridin-8-yl]-3,6-dihydro-2H-pyridin-1-yl]-4,4,4-trifluoro-butan-1-one], the Ki was determined as 2.99 nM.

Take `CN(C)c1cccc(C2CCN(C(=O)c3ccc(Nc4nc5c(C6=CCN(C(=O)CCC(F)(F)F)CC6)cccn5n4)cc3)CC2)n1` [Example 2-91, 1-[4-[2-[4-[4-[6-(dimethylamino)-2-pyridyl]piperidine-1-carbonyl]anilino]-[1,2,4]triazolo[1,5-a]pyridin-8-yl]-3,6-dihydro-2H-pyridin-1-yl]-4,4,4-trifluoro-butan-1-one]: the Ki stood at 3.67 nM.

On to `Cc1cc(N(C)C)cc(C2CCCN2C(=O)c2ccc(Nc3nc4c(C5=CCN(C(=O)CCC(F)(F)F)CC5)cccn4n3)cc2)n1` (stereo not shown) [Example 2-92, 1-[4-[2-[4-[2-[4-(dimethylamino)-6-methyl-2-pyridyl]pyrrolidine-1-carbonyl]anilino]-[1,2,4]triazolo[1,5-a]pyridin-8-yl]-3,6-dihydro-2H-pyridin-1-yl]-4,4,4-trifluoro-butan-1-one], for which the Ki is 0.44 nM.

For the molecule `CN1CCCC2(CCCN(C(=O)c3ccc(Nc4nc5c(C6=CCN(C(=O)CCC(F)(F)F)CC6)cccn5n4)cc3)C2)C1` (stereo not shown) [Example 2-93, 4,4,4-trifluoro-1-[4-[2-[4-(8-methyl-2,8-diazaspiro[5.5]undecane-2-carbonyl)anilino]-[1,2,4]triazolo[1,5-a]pyridin-8-yl]-3,6-dihydro-2H-pyridin-1-yl]butan-1-one], the Ki worked out at 1.27 nM.

For the molecule `CCOC(=O)N1CC=C(c2cccn3nc(Nc4ccc(C(=O)OC5CCN(C)CC5)cc4)nc23)CC1` [Example 2-94, ethyl 4-[2-[4-[(1-methyl-4-piperidyl)oxycarbonyl]anilino]-[1,2,4]triazolo[1,5-a]pyridin-8-yl]-3,6-dihydro-2H-pyridine-1-carboxylate], the Ki turned out to be 1.68 nM.

Consider `O=C(CCC(F)(F)F)N1CC=C(c2cccn3nc(Nc4ccc(C(=O)N5CCN(Cc6ccccn6)CC5)cc4)nc23)CC1` [Example 2-95, 4,4,4-trifluoro-1-[4-[2-[4-[4-(2-pyridylmethyl)piperazine-1-carbonyl]anilino]-[1,2,4]triazolo[1,5-a]pyridin-8-yl]-3,6-dihydro-2H-pyridin-1-yl]butan-1-one], for which the Ki turned out to be 0.75 nM.

Consider `CN(CCc1ccncc1)C(=O)c1ccc(Nc2nc3c(C4=CCN(C(=O)CCC(F)(F)F)CC4)cccn3n2)cc1` [Example 2-96, N-methyl-N-[2-(4-pyridyl)ethyl]-4-[[8-[1-(4,4,4-trifluorobutanoyl)-3,6-dihydro-2H-pyridin-4-yl]-[1,2,4]triazolo[1,5-a]pyridin-2-yl]amino]benzamide], for which the Ki is 0.68 nM.

`CN(C)C1CCN(C(=O)c2ccc(Nc3nc4c(C5=CCN(C(=O)CCC(F)(F)F)CC5)cccn4n3)cc2)CC1` [Example 2-97, 1-[4-[2-[4-[4-(dimethylamino)piperidine-1-carbonyl]anilino]-[1,2,4]triazolo[1,5-a]pyridin-8-yl]-3,6-dihydro-2H-pyridin-1-yl]-4,4,4-trifluoro-butan-1-one]: the Ki was 1.07 nM.

Turning to `CN1CCN(C(=O)c2ccc(Nc3nc4c(C5=CCN(C(=O)CCC(F)(F)F)CC5)cccn4n3)cc2)CC1` [Example 2-98, 4,4,4-trifluoro-1-[4-[2-[4-(4-methylpiperazine-1-carbonyl)anilino]-[1,2,4]triazolo[1,5-a]pyridin-8-yl]-3,6-dihydro-2H-pyridin-1-yl]butan-1-one], the Ki stood at 1.11 nM.

With `CN1CCN(CCCNC(=O)c2ccc(Nc3nc4c(C5=CCN(C(=O)CCC(F)(F)F)CC5)cccn4n3)cc2)CC1` [Example 2-99, N-[3-(4-methylpiperazin-1-yl)propyl]-4-[[8-[1-(4,4,4-trifluorobutanoyl)-3,6-dihydro-2H-pyridin-4-yl]-[1,2,4]triazolo[1,5-a]pyridin-2-yl]amino]benzamide], the Ki was determined as 0.58 nM.

`CC1CCCN(CCNC(=O)c2ccc(Nc3nc4c(C5=CCN(C(=O)CCC(F)(F)F)CC5)cccn4n3)cc2)C1` (stereo not shown) [Example 2-101, N-[2-(3-methyl-1-piperidyl)ethyl]-4-[[8-[1-(4,4,4-trifluorobutanoyl)-3,6-dihydro-2H-pyridin-4-yl]-[1,2,4]triazolo[1,5-a]pyridin-2-yl]amino]benzamide]: the Ki came to 0.81 nM.

In the case of `CN(C)CCN1CCN(C(=O)c2ccc(Nc3nc4c(C5=CCN(C(=O)CCC(F)(F)F)CC5)cccn4n3)cc2)CC1` [Example 2-102, 1-[4-[2-[4-[4-[2-(dimethylamino)ethyl]piperazine-1-carbonyl]anilino]-[1,2,4]triazolo[1,5-a]pyridin-8-yl]-3,6-dihydro-2H-pyridin-1-yl]-4,4,4-trifluoro-butan-1-one], the Ki was 0.84 nM.

In the case of `O=C(CCC(F)(F)F)N1CC=C(c2cccn3nc(Nc4ccc(C(=O)N5CCCC(c6cc7cccnc7[nH]6)C5)cc4)nc23)CC1` (stereo not shown) [Example 2-103, 4,4,4-trifluoro-1-[4-[2-[4-[3-(1H-pyrrolo[2,3-b]pyridin-2-yl)piperidine-1-carbonyl]anilino]-[1,2,4]triazolo[1,5-a]pyridin-8-yl]-3,6-dihydro-2H-pyridin-1-yl]butan-1-one], the Ki was found to be 2.69 nM.

As for `CN(Cc1ccccc1-c1cccnc1)C(=O)c1ccc(Nc2nc3c(C4=CCN(C(=O)CCC(F)(F)F)CC4)cccn3n2)cc1` [Example 2-104, N-methyl-N-[[2-(3-pyridyl)phenyl]methyl]-4-[[8-[1-(4,4,4-trifluorobutanoyl)-3,6-dihydro-2H-pyridin-4-yl]-[1,2,4]triazolo[1,5-a]pyridin-2-yl]amino]benzamide], the Ki stood at 1.94 nM.
